In all, about 110,000 compounds went through this assay and about 230 (0.21%) showed an effect of 50% or more. The list shows a part of the results.
target: DPAP1 (Plasmodium falciparum, UniProt Q8IIJ9); assay: primary screen, percent inhibition; read by cleavage of a fluorogenic dipeptide substrate; higher = more effect of the substance; parameters: species or system P. falciparum D10 trophozoite lysates; single well
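Note: 30 min substrate incubation versus DMSO and 10 µM JCP410 controls.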

DPAP1, sequence (Q8IIJ9 whole entry, looked up): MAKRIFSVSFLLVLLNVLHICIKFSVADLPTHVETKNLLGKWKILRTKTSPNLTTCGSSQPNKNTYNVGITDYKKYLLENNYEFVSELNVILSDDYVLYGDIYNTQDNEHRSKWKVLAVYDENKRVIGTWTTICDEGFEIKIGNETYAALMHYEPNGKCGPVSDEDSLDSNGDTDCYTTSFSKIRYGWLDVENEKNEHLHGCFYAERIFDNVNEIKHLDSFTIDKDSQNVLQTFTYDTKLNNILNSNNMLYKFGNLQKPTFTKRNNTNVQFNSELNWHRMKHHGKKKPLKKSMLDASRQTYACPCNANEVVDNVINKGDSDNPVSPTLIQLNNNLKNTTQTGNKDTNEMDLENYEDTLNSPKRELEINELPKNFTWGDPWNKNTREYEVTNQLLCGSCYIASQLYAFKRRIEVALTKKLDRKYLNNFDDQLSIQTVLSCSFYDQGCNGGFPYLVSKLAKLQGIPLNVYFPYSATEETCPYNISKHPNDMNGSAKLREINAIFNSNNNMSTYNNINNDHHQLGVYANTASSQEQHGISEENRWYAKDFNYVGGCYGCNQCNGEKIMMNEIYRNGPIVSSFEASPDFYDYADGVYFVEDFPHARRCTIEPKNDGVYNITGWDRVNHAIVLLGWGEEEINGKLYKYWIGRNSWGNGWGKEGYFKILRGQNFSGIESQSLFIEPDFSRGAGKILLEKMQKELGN

Row | Structure (SMILES) | % Inhibition @ 10 uM [%]
1 | CCOC(=O)c1cc(C)n(CC2CCC(C(=O)Nc3ccc(C)cn3)CC2)c1C (centres unmarked) | -0.416
2 | CN(C)S(=O)(=O)n1cc(/C=C(\NC(=O)c2ccccc2Cl)C(=O)NCCO)c2ccccc21 | -3.52
3 | CCc1nnc(NC(=O)CSc2ccc3nnc(-c4ccc(OC)cc4)n3n2)s1 | -1.44
4 | COc1ccc(C2C3=C(O)CCCC3=Nc3nc(SC)nn32)c(OC)c1 (centres unmarked) | 1.73
5 | CC(C)CC(NC(=O)C1CCCCC1)C(=O)NCCc1ccccc1 (centres unmarked) | -2.49
6 | OC1CC(c2ccccc2)NC2(CCCC2)C1 (centres unmarked) | 3.18
7 | c1ccc(C2=NNC(c3ccccc3)=NN2)cc1 | 3.74
8 | COc1ccc(Cn2c(C(=O)O)c(CNCc3ccc(OC(C)C)cc3)c3ccccc32)cc1 | 1.73
9 | O=C(CCN1C(=O)C2C3C=CC(C3)C2C1=O)Nc1ccccc1C(F)(F)F (centres unmarked) | 0.583
10 | O=C(O)Cn1nc(-c2ccccc2)ccc1=O | -0.256
11 | Cc1ccc(OCC(=O)Nc2ccc(Br)c(Cl)c2)cc1 | -7.25
12 | CN1CCN(C(=O)c2ccc(S(=O)(=O)N3CCCCC3)cc2)CC1 | -3.63
13 | NC(=O)c1cc2c(nc1O)CCc1c-2[nH]c2ccccc12 | 7.92
14 | Clc1ccc(OCCSCc2nc3ccccc3[nH]2)cc1 | 9.18
15 | O=C1c2ccccc2NC(c2ccc(O)cc2)N1Cc1ccco1 (centres unmarked) | 1.35
16 | CCN1CCC(N2CCN(c3cccc(Cl)c3)CC2)CC1 | -0.0908
17 | CC1=C(C(=O)Nc2cccc(C)n2)C(c2cccc(Br)c2)C2=C(O)CCCC2=N1 (centres unmarked) | 2.85
18 | Cc1cccc(C(=O)N2CCN(c3ccccc3)CC2)c1 | -5.26
19 | COc1ccc(CN2CCN(C/C=C/c3ccccc3)CC2)cc1C | 6.25
20 | COC(=O)C(Cc1ccc(O)cc1)NC(=O)c1ccco1 (centres unmarked) | 5.54
21 | CCCOc1ccc(C2C(C(=O)c3ccc4c(c3)CC(C)O4)=C(O)C(=O)N2CC2CCCO2)cc1 (centres unmarked) | -13.5
22 | COc1cccc(CNC(=O)c2ccc(CS(=O)c3ccccc3Cl)o2)c1 (centres unmarked) | -0.434
23 | CC(C)(C)c1cc(C(c2ccccn2)N2CCN(CCO)CC2)cc(C(C)(C)C)c1O (centres unmarked) | -1.52
24 | NC(=O)C1CCCN(Cc2cc(Br)cs2)C1 (centres unmarked) | 2.1
25 | Cc1ccccc1S(=O)(=O)Cc1ccc(C(=O)NCCC(C)C)o1 | 0.458
26 | O=C(Cc1ccccc1)Nc1ccc(S(=O)(=O)N2CCCCC2)cc1 | 0.907

Row | Structure (SMILES) | % Inhibition @ 10 uM [%]
27 | Fc1ccc(CN2CCN(c3ncccn3)CC2)c(F)c1 | -3.72
28 | CC1=CC(=C2C(=O)NC(=O)NC2=O)C=C(C(F)(F)F)N1CCO | -1.86
29 | COCCNC(=O)c1cc(-c2ccccn2)nc2ccc(S(=O)(=O)N3CCC(C)CC3)cc12 | 2.35
30 | O=C(CCc1nnc2n(CCc3ccccc3)c(=O)c3ccccc3n12)N1CCOCC1 | 0.981
31 | O=C(CC1Nc2ccccc2NC1=O)NCc1ccccc1 (centres unmarked) | 8.63
32 | CC(C)CCNC(=O)CCCc1nnc2n(C)c(=O)c3sccc3n12 | 0.0603
33 | CCC(C)(C)C1CCc2c(sc(NC(=O)c3cccs3)c2C(N)=O)C1 (centres unmarked) | -3.49
34 | CCCOc1ccccc1C1CC(=O)NC2=C1C(=O)CC(C)(C)C2 (centres unmarked) | -5.2
35 | COc1ccccc1CNS(=O)(=O)c1cccs1 | -2.65
36 | CC(O)/C=C/c1ccc2ccccc2n1 (centres unmarked) | 4.51
37 | COc1ccccc1N1C(=O)C2C3CC(c4ccccc4)C(C3)C2C1=O (centres unmarked) | -7.96
38 | Cc1cc(C)c(C#N)c(Nc2cccc(C(F)(F)F)c2)n1 | 1.61
39 | Cn1c(=O)c2c(ncn2CC(=O)N2CCN(c3cccc(Cl)c3)CC2)n(C)c1=O | -1.84
40 | Cc1cc2c(c(C)c1C)CC(C)(C)NC2=O | -0.703
41 | O=S(=O)(Nc1ccc(Cl)cc1)c1ccc(-c2ccccc2)cc1 | -2.03
42 | CCN(CC)CCCN(C)C(=O)c1nc(-c2ccc(Cl)cc2)n2c1CCCCC2 | 4.39
43 | Cn1c(C(=O)NCc2cccnc2)cc2oc3ccccc3c21 | -0.281
44 | CCS(=O)(=O)c1nc(S(=O)(=O)c2ccc(C)cc2)c(N(C)Cc2ccccc2)s1 | -2.25
45 | CCn1cc(C2=NOC(C(=O)O)C2)c(C)n1 (centres unmarked) | 0.291
46 | Cn1cc(Br)c(C(=O)NC23CC4CC(CC(C4)C2)C3)n1 | 2.13
47 | CC1CCCN(C(=O)Cn2c(-c3nonc3N)nc3ccccc32)C1 (centres unmarked) | -2.68
48 | Cc1c(C)c2c(cc(C)c3c(C(C)(C)C)coc32)oc1=O | -1.37
49 | Cc1nc2cc(-c3ccccc3)nn2c(C)c1CCC(=O)N1CCOCC1 | 4.34
50 | N#CC1=C(N)OC2=C(C(=O)CC(c3ccccc3)C2)C1c1ccc(F)c(Br)c1 (centres unmarked) | 15.7
51 | O=[N+]([O-])CCc1cc2ccccc2[nH]1 | -2.32
52 | O=C1c2ccccc2C(=O)N1c1ccc(OC(F)(F)F)cc1 | 2.91

Row | Structure (SMILES) | % Inhibition @ 10 uM [%]
53 | CCCNC(=O)c1c(C)c(C(=O)OCC)n(C)c1C | -3.44
54 | COc1ccc(N2C(=O)c3cccc4cccc(c34)C2=O)cc1OC | 0.727
55 | CCc1ccc(C2C(C#N)=C(N)OC3=C2C(=O)CCC3)cc1 (centres unmarked) | -4.94
56 | CC(C)c1ccc(-c2c(NCc3cccs3)c(=O)c2=O)cc1 | -0.539
57 | O=C(CCc1ccc(S(=O)(=O)NC2CCCCC2)cc1)NCC1CCCO1 (centres unmarked) | 3.53
58 | CCCNC(=O)c1nc(-c2ccc(Cl)cc2)n2c1CCCCC2 | 0.453
59 | COCCN1C(=O)c2ccccc2C(C(=O)NCc2ccc(F)cc2)C1c1ccc(F)cc1 (centres unmarked) | 7.29
60 | Cc1cc(NC(=O)c2cc(-c3ccc(Cl)s3)nc3ccccc23)no1 | -4.77
61 | CCCC[C@H](NC(=O)[C@H](Cc1ccccc1)NC(=O)N1CCOCC1)C(=O)c1nc2ccccc2o1 | -1.83
62 | Cc1cc(C)c(C(=O)c2ccc(C(=O)Nc3ccc(N(C)C)cc3)cc2)c(C)c1 | 2.76
63 | COc1cccc(C(=O)Cn2c(Br)nc3c2c(=O)n(C)c(=O)n3C)c1 | -2.83
64 | CC1C2C(c3ccccc3)N(C)C(=O)N(C)C2N(C)C(=O)N1C (centres unmarked) | 1.87
65 | Nc1sc2c(c1C(=O)Nc1cccc(C(F)(F)F)c1)CCCC2 | 8.03
66 | O=C(Nc1ccccc1)Nc1ccc(Nc2ccccc2)cc1 | -4.71
67 | C1=CC2CC1CC2CN1CCN(C/C=C/c2ccccc2)CC1 (centres unmarked) | 1.9
68 | CC1(C(=O)Nc2ncc(Cc3cccc(C(F)(F)F)c3)s2)Cc2ccccc2C(=O)O1 (centres unmarked) | 0.953
69 | Cc1nc(-c2ccccc2)nc2c1CCCC2 | -1.86
70 | Cc1cccc(C(=O)Nc2nnc(/C=C/c3ccccc3)s2)c1 | -4.24
71 | C/C(Cl)=C/CSc1nc2c(c(=O)[nH]c(=O)n2C)n1Cc1ccccc1Cl | 2.36
72 | CC(=O)Nc1ccc(S(=O)(=O)N2CCC(C(N)=O)CC2)cc1 | -4.21
73 | C=CCc1ccc(OCC(=O)O)c(OC)c1 | 3.47
74 | O=C(c1ccc(CSc2nc3ccncc3n2Cc2cccc(F)c2)cc1)N1CCCC1 | -2.37
75 | O=C(COc1ccc(Br)cc1)N(Cc1ccccc1)Cc1ccccc1 | 17.4
76 | CCn1c(C)nc2cc(S(=O)(=O)NC)ccc21 | 1.29
77 | CC(=O)c1c(NC(=O)C(C)C)nc(C)nc1-c1ccccc1 | -5.46
78 | O=C(c1ccc(-c2ccccc2)cc1)N1CCN(Cc2ccccc2)CC1 | -10.8

Row | Structure (SMILES) | % Inhibition @ 10 uM [%]
79 | COc1ccccc1N1CCN(C(=O)N[C@@H](CC(C)C)C(=O)NCC#N)CC1 | -5.2
80 | CCc1nnc(NC(=O)CSc2nc3c(c(=O)n2Cc2ccccc2)SCC3)s1 | 1.66
81 | CSc1nc2nc(O)cc(O)c2s1 | 1.76
82 | C=CCN1C(=O)N/C(=C/c2ccc(OC(C)C)cc2)C1=O | -5.04
83 | CCOC(=O)c1nc(-c2cc[n+](C)cc2)no1 | 4.33
84 | c1ccc(CNCC2OCCc3ccccc32)cc1 (centres unmarked) | -6.01
85 | CC1=CSC2=NC(=O)/C(=C\c3cccn3-c3nnc(-c4ccccc4)s3)C(=N)N12 | 0.208
86 | O=S(=O)(Nc1nc2ccccc2s1)c1ccccc1 | -5.33
87 | Cc1cccc(N2CCN(Cc3cc([N+](=O)[O-])ccc3Cl)CC2)c1C | -5.57
88 | CC(C)CC(C(=O)NCC#N)c1cccc(-c2ccc(O)c(-c3ccno3)c2)c1 (centres unmarked) | 3.19
89 | COc1ccc(C2C(C(=O)c3ccc(C)cc3)=C(O)C(=O)N2CCCn2ccnc2)c(OC)c1 (centres unmarked) | 0.487
90 | O=C(C1=C(O)C(=O)N(Cc2ccco2)C1c1cccc(O)c1)c1ccc2c(c1)OCCO2 (centres unmarked) | -9.82
91 | COc1cccc(NC(=O)c2ccc(OC(F)F)cc2)c1 | -3.69
92 | COC(=O)c1ccc(C2c3c(oc4ccccc4c3=O)C(=O)N2c2nncs2)cc1 (centres unmarked) | 5.3
93 | CC(C)c1cccc(C(C)C)c1NC(=O)Cn1cnc2ccccc2c1=O | -5.67
94 | COC(=O)c1cc2sccc2n1CC(=O)Cc1ccc(OC)cc1OC | -6.95
95 | N#CC1=C(N)OC2=C(C(=O)CC(c3ccccc3)C2)C1c1cccc(Cl)c1Cl (centres unmarked) | 27.9
96 | Cc1cc(C)c2[nH]c(C)c(CCN)c2c1 | -3.04
97 | CCC1CCCCN1CCCNC(=O)C1CCN(Cc2nc(-c3ccc(Cl)cc3)oc2C)CC1 (centres unmarked) | 2.37
98 | CCc1nc2sc3c(c2c2nncn12)CCCC3 | -3.92
99 | CCOC(=O)c1c(C)[nH]c(C)c1S(=O)(=O)NC1CCC(C)CC1 (centres unmarked) | 0.533
100 | CC(C)=CCC/C(C)=C/CN1CCN(CCO)CC1 | 2.91
101 | CN1C(=O)NC(=O)/C(=C\c2ccc(-c3ccccc3F)o2)C1=O | -0.834
